# Data reported in the BET-seq Pho4 binding data (Le et al. 2018).
# Some of the results follow. These are noisy estimates, calculated here from bound and input reads.
# Target: T1, Pho4 (S. cerevisiae) (UniProt P07270)
# T1 sequence: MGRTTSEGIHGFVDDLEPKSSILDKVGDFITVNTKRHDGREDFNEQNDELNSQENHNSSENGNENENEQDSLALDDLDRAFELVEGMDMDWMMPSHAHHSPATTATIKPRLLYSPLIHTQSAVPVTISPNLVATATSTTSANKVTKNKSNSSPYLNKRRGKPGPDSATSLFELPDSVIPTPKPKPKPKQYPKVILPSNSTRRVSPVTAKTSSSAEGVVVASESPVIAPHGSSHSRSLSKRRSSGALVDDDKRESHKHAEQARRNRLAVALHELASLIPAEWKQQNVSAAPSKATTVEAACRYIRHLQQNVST
# Assay: relative binding free energy (BET-seq); higher = weaker binding
# Conditions: reference: library average
row,Sequence,relative binding free energy
1,GTCGGCACGTGGCAGA,0 kcal/mol
2,AGTTTCACGTGGGTAA,0.13 kcal/mol
3,TAGATCACGTGGTAGG,0.05 kcal/mol
4,GGACTCACGTGTAGTA,0.39 kcal/mol
5,TGTTGCACGTGCGCGC,-0.09 kcal/mol
6,ATTGGCACGTGATTGA,-0.07 kcal/mol
7,TGTACCACGTGCTGGT,-0.05 kcal/mol
8,ACGTACACGTGTATGT,0.06 kcal/mol
9,GGGTTCACGTGCTGCT,0.17 kcal/mol
10,TTTCTCACGTGATAGT,0.2 kcal/mol
11,GTTAACACGTGCATTT,0.2 kcal/mol
12,TTCGGCACGTGGGGCA,-0.18 kcal/mol
13,ATGTGCACGTGATAGA,0 kcal/mol
14,CTTTACACGTGGAATT,0.3 kcal/mol
15,GCAAGCACGTGGAGGT,-0.08 kcal/mol
16,TCTGGCACGTGATAGT,-0.12 kcal/mol
17,TTTCTCACGTGACGTT,0.32 kcal/mol
18,GGGGTCACGTGGTGGT,0.16 kcal/mol
19,TGGGTCACGTGTTGGC,0.3 kcal/mol
20,TATATCACGTGAGAGG,0.42 kcal/mol
21,CTTGGCACGTGTGTAG,-0.13 kcal/mol
22,GAGGCCACGTGATTGT,0.29 kcal/mol
23,TCTAACACGTGTTGGG,0.01 kcal/mol

row,Sequence,relative binding free energy
1,AGGCACACGTGTGTTT,0.07 kcal/mol
2,TATCGCACGTGTGGGT,0.04 kcal/mol
3,CATTACACGTGTCGTT,0.27 kcal/mol
4,GTATACACGTGTGGAG,0.14 kcal/mol
5,TTTGTCACGTGCGATA,0.19 kcal/mol
6,TTAGGCACGTGTGGAT,0.02 kcal/mol
7,GACGGCACGTGGACGG,0.08 kcal/mol
8,AGCCTCACGTGTATGG,0.3 kcal/mol
9,AATGGCACGTGTGTCG,-0.18 kcal/mol
10,TAGTGCACGTGGGTGC,-0.15 kcal/mol
11,GGTCTCACGTGAGGAG,0.31 kcal/mol
12,GTTAACACGTGTTGTT,0.08 kcal/mol
13,TTTTTCACGTGGAATG,0.2 kcal/mol
14,GAGTTCACGTGTGGGC,0.49 kcal/mol
15,ATTTTCACGTGAAGCT,0.53 kcal/mol
16,AGCGTCACGTGTGCGG,0 kcal/mol
17,CATGACACGTGGTAGG,-0.04 kcal/mol
18,GCGGGCACGTGGCTTG,-0.25 kcal/mol
19,TTTTTCACGTGTCCGT,0.15 kcal/mol
20,GGAGGCACGTGATCTG,-0.03 kcal/mol
21,TGGAACACGTGTGATG,0.02 kcal/mol
22,GATAGCACGTGAAAGT,0.37 kcal/mol
23,CTGAGCACGTGGGCTG,-0.27 kcal/mol

row,Sequence,relative binding free energy
1,TATTGCACGTGCGGAG,-0.1 kcal/mol
2,GGGAGCACGTGGGACT,-0.09 kcal/mol
3,GGGTGCACGTGTTGTT,0.03 kcal/mol
4,TTTTACACGTGAAAAG,0.35 kcal/mol
5,CGGGTCACGTGTTGGA,0.21 kcal/mol
6,TGGAGCACGTGTCAGT,-0.08 kcal/mol
7,TAATGCACGTGTAATA,0.06 kcal/mol
8,GGGATCACGTGACGGG,0.24 kcal/mol
9,GATTACACGTGTTCGG,0.12 kcal/mol
10,TAAAGCACGTGCGGTG,-0.07 kcal/mol
11,TGCGTCACGTGGGTCT,-0.06 kcal/mol
12,GGCGTCACGTGAGGTC,0.36 kcal/mol
13,GGGCGCACGTGGTTGT,-0.18 kcal/mol
14,CAGGTCACGTGGTTGA,-0.02 kcal/mol
15,TTGCGCACGTGGGTAC,-0.16 kcal/mol
16,TAATGCACGTGGGTTT,-0.18 kcal/mol
17,ATGAACACGTGGCGGG,-0.06 kcal/mol
18,GTCTGCACGTGGGCTT,-0.16 kcal/mol
19,GTAAACACGTGCTGGT,0 kcal/mol
20,GATGTCACGTGGCTTA,0.18 kcal/mol
21,GGATACACGTGAAGTG,0.34 kcal/mol
22,TGCAGCACGTGATTGT,-0.13 kcal/mol
23,ATTGTCACGTGGGGTC,-0.02 kcal/mol

row,Sequence,relative binding free energy
1,TTTTCCACGTGTGATA,0.16 kcal/mol
2,CTGCTCACGTGATGGG,0.22 kcal/mol
3,GGGGTCACGTGCGCTG,-0.1 kcal/mol
4,TTAATCACGTGGGGAT,0.2 kcal/mol
5,GGTTACACGTGCTTTT,0.04 kcal/mol
6,GCGGGCACGTGATGGA,-0.11 kcal/mol
7,TTGATCACGTGTGTTA,0.2 kcal/mol
8,GGCGACACGTGGTTTG,-0.05 kcal/mol
9,GGGAACACGTGGGGTG,-0.04 kcal/mol
10,TATGTCACGTGGCTGA,0.05 kcal/mol
11,TTCGACACGTGCTTGG,0.13 kcal/mol
12,TTTTGCACGTGTCTTC,0.05 kcal/mol
13,AGTTACACGTGCGGGT,0.19 kcal/mol
14,AGGAGCACGTGTTTTT,-0.1 kcal/mol
15,TGCTTCACGTGGCTGT,0.17 kcal/mol
16,GTTATCACGTGTAAGA,0.23 kcal/mol
17,TTGCACACGTGGGTTC,0.02 kcal/mol
18,AGAGTCACGTGTGACG,0.22 kcal/mol
19,AGTAACACGTGTAGTC,0.19 kcal/mol
20,GGGACCACGTGAAGGG,0.23 kcal/mol
21,ATCGTCACGTGCGGGT,0.06 kcal/mol
22,TTGCGCACGTGCTGGT,-0.27 kcal/mol
23,GGCCGCACGTGTGTGA,0.03 kcal/mol

row,Sequence,relative binding free energy
1,TTATGCACGTGAAAGA,0.42 kcal/mol
2,AGCGTCACGTGGGAGG,-0.08 kcal/mol
3,TTTCTCACGTGTTGCG,0.27 kcal/mol
4,AGGTACACGTGCGGTG,-0.02 kcal/mol
5,TACTTCACGTGCGGGG,0.16 kcal/mol
6,AGGGGCACGTGCGGTC,-0.27 kcal/mol
7,TTGTTCACGTGGTCAT,0 kcal/mol
8,TTAGTCACGTGGATTT,0.07 kcal/mol
9,AATATCACGTGGGGTT,-0.02 kcal/mol
10,ATTAACACGTGTGCGG,-0.02 kcal/mol
11,GGCGGCACGTGGGCCG,-0.24 kcal/mol
12,ATTTGCACGTGTTTGT,0.11 kcal/mol
13,AAATGCACGTGGTTAT,0.09 kcal/mol
14,GGTGGCACGTGAAATG,0.27 kcal/mol
15,TGTTGCACGTGTGACA,0.01 kcal/mol
16,GAGGGCACGTGGTATC,-0.12 kcal/mol
17,GTATTCACGTGTGTGC,0.27 kcal/mol
18,GGTGGCACGTGCGTAT,-0.15 kcal/mol
19,GTAAACACGTGGCGTG,0.01 kcal/mol
20,GGTCTCACGTGCTGGT,0.17 kcal/mol
21,TATTACACGTGGAGGG,0.07 kcal/mol
22,TGATGCACGTGATTTA,0.09 kcal/mol
23,TCAGGCACGTGGAAGT,0.05 kcal/mol
